Laboratory results reported in PubChem BioAssay AID485281 (National Center for Advancing Translational Sciences (NCATS), 2010).
Values joined by “and” are separate entries in the source; they are usually repeats but may differ in a detail not shown here. Identical values can stand only once. Among all 350,000 compounds or so, about 260 (0.074%) were called active. Inconclusive means that the source gave no clear call. Such entries were picked first, then a sample of the others. The call rests on the fitted dose curve; in most records, active means well fitted inhibition curve with a large enough effect; inconclusive means small, poorly fitted or top-dose-only effect; inactive means no such curve, though single readings can be large or run the other way. Potencies beside an inconclusive call are fits to weak or partial responses and may not hold up.

Each compound was assayed against Ferritin light chain (Equus caballus) (UniProt P02791) (assay: qHTS Assay for Identification of Novel General Anesthetics). Conditions: apoferritin/1-aminoanthracene competitive binding, fluorescence; activity change, negative = displacement: at 77.5 µM (top of the series).
Sequence of UniProt P02791 (P02791 whole entry, looked up): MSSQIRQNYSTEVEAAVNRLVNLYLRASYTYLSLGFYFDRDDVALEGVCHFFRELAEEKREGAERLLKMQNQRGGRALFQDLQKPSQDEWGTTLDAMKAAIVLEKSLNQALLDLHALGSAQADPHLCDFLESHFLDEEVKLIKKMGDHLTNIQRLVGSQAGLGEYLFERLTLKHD
How it was run: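 Apoferritin-based anesthetic binding model; compound displacement of fluorescent 1-AMA measured as endpoint fluorescence after 10 minutes at room temperature, scaled to free-ligand and complex controls.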
Further: nearly all actives have a fitted effect of over 20% in size.
On the % scale 0 is the no-effect control and ±100 the full control effect; potency means the concentration at half of the fitted maximal effect; tags describe the fitted curve by direction and shape.

SMILES	Potency	activity change, negative = displacement
COc1cccc(C(=O)SC2=NCCS2)c1	inconclusive: 31.6 µM [inhibitor, single point]	
Cc1cc(NC(=O)c2c(F)cccc2Cl)n(-c2nc3ccccc3[nH]2)n1		inactive: -18.8%
Cc1ccc(N2C(=O)N(CC(=O)Nc3ccccc3C)C(=O)C2C)cc1 (configuration not stated)	inconclusive: 31.6 µM [inhibitor, partial curve]	
Cc1ccc(CNC(=O)CCSCc2ccccc2F)cc1	inconclusive: 25.1 µM [inhibitor, partial curve, poor fit] and inconclusive: 28.2 µM [inhibitor, partial curve]	
CN(C)/C=C/C(=C\C(=O)C(F)(F)F)Nc1ccc(C(F)(F)F)cc1	inconclusive: 25.1 µM [inhibitor, single point]	
Cc1nn(Cc2cccc(C(=O)NC3CCCCC3)c2)c(C)c1Cl	inconclusive: 31.6 µM [inhibitor, partial curve]	
O=C(c1ccc([N+](=O)[O-])cc1[N+](=O)[O-])N1CCc2ccccc21	inconclusive: 31.6 µM [inhibitor, single point]	
Cc1cccn2c(=O)c(/C=C(\C#N)C(N)=O)c(N3CCCCCC3)nc12	inconclusive: 31.6 µM [inhibitor, partial curve]	
Cc1ccc(N(C(=O)COc2ccccc2C)S(=O)(=O)c2ccc(Cl)cc2)cc1	inconclusive: 7.94 µM [inhibitor, partial curve]	
O=C(COC(=O)/C=C/c1ccc(S(=O)(=O)N2CCOCC2)cc1)NC1CCCCCCC1	inconclusive: 25.1 µM [inhibitor, partial curve]	
Cc1sc2cc3c(c(C(=O)c4ccccc4)[n+]2c1C)-c1cccc2cccc-3c12		inactive: -6.33%
N#CCSc1nnc(COc2ccc3ccccc3c2)o1	inconclusive: 28.2 µM [inhibitor, single point]	
CN(CC(=O)Nc1ccc(Cl)cc1)C1CCCCC1	inconclusive: 28.2 µM [inhibitor, single point]	
CCN(CC)S(=O)(=O)c1ccc2[nH]cc(C(=O)NCCN3CCCCCC3)c(=O)c2c1	inconclusive: 50.1 µM [inhibitor, partial curve, poor fit]	
CC(=O)C1=C(C)Nc2cc(C(F)(F)F)ccc2S1	inconclusive: 35.5 µM [inhibitor, single point]	
CCOC(=O)C1CCN(c2nc(N)c3c(N)nc(SCC(=O)O)cc3c2C#N)CC1		inactive: -0.648%
NCCCC[C@H](NC(=O)CNC(=O)[C@@H]1CCCN1C(=O)[C@H](Cc1ccc(O)cc1)NC(=O)CN)C(=O)N[C@@H](Cc1ccccc1)C(=O)O		inactive: 5.08%
CC(=O)N/N=C/c1c(C)[nH]n(-c2ccccc2)c1=O		inactive: -2.02%
Cc1cc(Cl)ccc1OCCCC(=O)N/N=C/c1cccc([N+](=O)[O-])c1	inconclusive: 5.62 µM [inhibitor, full curve, poor fit]	
Cc1ccc(NC(=O)c2nnn(CC(=O)Nc3ccc4c(c3)OCO4)c2N)cc1C	inconclusive: 25.1 µM [inhibitor, single point]	
O=[N+]([O-])c1cccc(S(=O)(=O)NCC2CC3CCC2C3)c1 (configuration not stated)	inconclusive: 50.1 µM [inhibitor, single point]	
Cc1nc(-c2ccc(Cl)cc2)sc1CCNC(=O)c1ccc(C(F)(F)F)cc1		inactive: -4.8%
Cc1cccc(CN2CCC(C(=O)Nc3ccc(Oc4cccnc4)cc3)CC2)c1	inconclusive: 31.6 µM [inhibitor, partial curve]	

SMILES	Potency	activity change, negative = displacement
O=C(Cc1ccc(S(=O)(=O)N2CCCC2)s1)N1CCN(c2ccccc2)CC1		inactive: -10.6%
COc1cccc(C=O)c1OCCN1C(=O)c2ccccc2C1=O	inconclusive: 25.1 µM [inhibitor, partial curve]	
Cc1ccc(/C=C/C(=O)c2nc3ccccc3[nH]2)cc1	inconclusive: 17.8 µM [inhibitor, partial curve]	
Cc1cccc(N(Cc2cc3ccccc3[nH]c2=O)S(=O)(=O)c2ccccc2)c1		inactive: -6.07%
O=C(/C=C/c1ccccc1Cl)c1ccccc(=O)c1O	inconclusive: 39.8 µM [inhibitor, single point]	
OC(CNCCC1C=Nc2ccccc21)Cn1c2ccc(Cl)cc2c2cc(Cl)ccc21 (configuration not stated)		inactive: 0.0664%
O=C(c1ccc(CN2CCOCC2)cc1)N1CCN(c2cccc(Cl)c2)CC1		inactive: -11.9%
c1ccc2c(c1)nc(NCc1ccc3c(c1)OCO3)n2CCN1CCOCC1		inactive: -4.84%
Nc1cc(=O)[nH]c(SCc2ccc(Cl)cc2)n1	inconclusive: 14.1 µM [inhibitor, partial curve]	
COc1cccc(OCCSc2nc3ccccc3n2CC(=O)N2CCCCC2)c1	inconclusive: 28.2 µM [inhibitor, partial curve]	
CCc1[nH]nc2c1C(Cc1ccccc1)C(C#N)=C(N)O2 (configuration not stated)		inactive: -1.2%
COc1ccc(-c2nc(CN3CCC(C(=O)NCCCOC(C)C)CC3)c(C)o2)cc1OC		inactive: -0.299%
CC(C)Cc1cc(C(=O)N2CCCC(CO)(Cc3ccc(F)cc3)C2)no1 (configuration not stated)	inconclusive: 15.8 µM [inhibitor, partial curve]	
O=C(c1ccccc1)c1ccc2cc(O)ccc2c1	inconclusive: 56.2 µM [inhibitor, single point]	
N#C/C(=C\c1ccc(OCc2ccccc2)cc1)C(N)=O	inconclusive: 44.7 µM [inhibitor, partial curve]	
COc1cc(OC)c(C2Nc3ccccc3-c3nnc(SCc4ccccc4)nc3O2)cc1OC (configuration not stated)	inconclusive: 35.5 µM [inhibitor, partial curve]	
CSc1ccc(/C=C/C(=O)N2CCN(c3ccccn3)CC2)cc1	inconclusive: 15.8 µM [inhibitor, partial curve]	
O=C(c1ccccc1F)N1CCN(c2cccc(C(F)(F)F)c2)CC1	inconclusive: 56.2 µM [inhibitor, single point]	
COC(=O)c1[nH]c2ccccc2c1NC(=O)CN1CCN(C/C=C/c2ccccc2)CC1	inconclusive: 35.5 µM [inhibitor, partial curve]	
Cc1ccc(CNC(=O)Nc2ccc(OC(F)(F)F)cc2)n1C	inconclusive: 50.1 µM [inhibitor, single point]	
Cc1cc(-n2c(SCC(=O)NCc3cccs3)nc3n[nH]c(C)c3c2=N)ccc1Cl	inconclusive: 11.2 µM [inhibitor, partial curve]	
Cc1ccc(Cl)cc1N1CCN(C(=S)NCc2ccco2)CC1	inconclusive: 5.62 µM [inhibitor, partial curve]	
O=C(N/N=C(\c1ccccc1)c1cccnc1)c1cccc(F)c1		inactive: -14.7%

SMILES	Potency	activity change, negative = displacement
N#Cc1ccc(Nc2ccccc2)c(N)c1	inconclusive: 28.2 µM [inhibitor, partial curve]	
Cc1ccc(NS(=O)(=O)c2cc(N)ccc2Cl)c(C)c1	inconclusive: 28.2 µM [inhibitor, single point]	
O=[N+]([O-])c1cccc(CNc2ccc3c(c2)CCC3)c1	inconclusive: 35.5 µM [inhibitor, partial curve]	
N/C(=N\OC(=O)CSc1ccccc1)c1cccc([N+](=O)[O-])c1	inconclusive: 50.1 µM [inhibitor, single point]	
CCc1ccc(-c2nc(CN3CCCC(C(=O)N4CCN(c5cc(Cl)ccc5C)CC4)C3)c(C)o2)cc1 (configuration not stated)		inactive: 3.47%
O=C1C2CC=CCC2C(=O)N1c1ccc(OCC(O)Cn2nnc3ccccc32)cc1 (configuration not stated)	inconclusive: 20 µM [inhibitor, partial curve]	
CCCCCCOc1ccc(/C=C/C(=O)N2CCOCC2)cc1OC	inconclusive: 28.2 µM [inhibitor, single point]	
CCc1cccc(C)c1NC(=O)CSc1nc(C)cc(C)c1C(=O)Nc1ccccc1		inactive: -18.4%
CCCN(CCC)S(=O)(=O)c1ccc(C(=O)NCc2ccc3c(c2)OCO3)cc1	inconclusive: 10 µM [inhibitor, partial curve]	
COc1ccc(/C=C\C(=O)Oc2cccc(/C=N/NC(=O)Cc3ccc(OC)c(OC)c3)c2)cc1	inconclusive: 12.6 µM [inhibitor, partial curve]	
CCc1ccccc1NC(=O)c1ccc(-n2c(C)ccc2C)cc1	inconclusive: 20 µM [inhibitor, partial curve]	
COc1ccc(-c2ccc3c(N)c(C(=O)c4cccc(OC)c4)sc3n2)cc1	inconclusive: 50.1 µM [inhibitor, single point]	
C/C(=N\NC(=O)Cc1csc(N2CCOCC2)n1)c1ccccc1	inconclusive: 56.2 µM [inhibitor, single point]	
CC(C)(C)c1ccc(OCCn2ccccc2=O)cc1	inconclusive: 35.5 µM [inhibitor, single point]	
O=C(O)CN1C2=NCCCN2c2ccccc21		inactive: 0.828%
CN(C)S(=O)(=O)c1cccc(-c2nnc(SCc3cc(Cl)cc4c3OCOC4)n2N)c1	inconclusive: 17.8 µM [inhibitor, partial curve]	
Nc1cccc(-c2cnc3ccccc3n2)c1	inconclusive: 35.5 µM [inhibitor, single point]	
O=C(NCCc1c[nH]c2ccccc12)c1cc2ccccc2oc1=O	inconclusive: 7.94 µM [inhibitor, partial curve]	
COC(=O)c1ccc(CSc2nnc(Nc3ccccc3OC)s2)o1	inconclusive: 31.6 µM [inhibitor, partial curve]	
COc1ccc(-c2cccc(NS(=O)(=O)c3cc(C)c(OC)c(C)c3C)c2)nn1		inactive: -14.2%
CCOC(=O)c1cccc(NC(=O)CSc2nnc(-c3ccoc3C)n2CC)c1	inconclusive: 35.5 µM [inhibitor, partial curve]	
